# The campaign covered roughly 45,000 compounds. About 200 (0.44%) were called active. About 7% were inconclusive and are not listed. Calls come from the whole dose curve; as a rule, active = well fitted activation curve with a large enough effect; inconclusive = small, poorly fitted or top-dose-only effect; inactive = no such curve, though single readings can be large or run the other way. The list shows a part of the results.
# Experiment: qHTS of TDP-43 Inhibitors: NCGC Sytravon Library Screen; note: 0% is about no effect; nearly all actives have a fitted effect of over 55% in size
# Conditions: yeast TDP-43 toxicity rescue, BacTiter-Glo growth, 24 h; series mostly up to 46.1 µM; growth rescue (activation): at the top concentration
# Source text: The goal of this project is to identify new chemical probes capable of reversing the toxicity associated with TDP-43 which is associated with frontotemporal lobar degeneration and amyotrophic lateral sclerosis. These compounds will provide a complementary approach to deciphering the tangled mechanisms of toxicity and protection that we have uncovered through genome-wide genetic screens and are beginning to uncover in a large-scale proteomics analysis with mass spectroscopy. To this end, a miniaturized assay was developed to be screened against the Molecular Libraries Small Molecule Repository (MLSMR) to discover TDP-43 inhibitors. Please note that in the set-up this yeast-based assay compounds that inhibit as TDP-43, have a read-out as activators. NIH Chemical Genomics Center [NCGC] NIH Molecular Libraries Probe Centers Network [MLPCN] Assay Submitter (PI): Susan Lindquist, Whitehead Institute/MIT MLPCN Grant: R21 NS060957
# Dispense 2.5 microL yeast galactose medium per 1536-well plate, pin compound, dispense 2.5 microL TDP-43 expressing yeast in galactose medium at OD600=0.02 (pregrown in raffinose medium to mid-log phase) per well, incubate for 24 hr at 30 deg C, and cell growth will be measured using 5 microL of Bactiter/Glo reagent to entire plate and read using Luminescence Protocol in ViewLux.
row,Compound,growth rescue (activation)
1,O=C(CCCCCn1c(=O)c2sccc2n(CC(=O)Nc2cc(C(F)(F)F)ccc2Cl)c1=O)NCc1ccccc1Cl,inactive: 1.35%
2,CCn1ncc(-c2cc(C(=O)O)no2)c1C,inactive: -8.7%
3,CC1CN(CCOc2ccccc2[N+](=O)[O-])CC(C)O1 (centres undefined),inactive: 2.26%
4,NC(CCCCCP(=O)(c1ccccc1)c1ccccc1)C(=O)O (centres undefined),inactive: -7.84%
5,CCCN(CC(=O)Nc1ccc(F)c(F)c1F)C(=O)c1ccc2c(c1)NC(=O)CS2,inactive: 14.4%
6,O=C(N/N=C/C=C/c1ccco1)c1cccs1,inactive: 3.47%
7,COc1ccc(S(=O)(=O)NC(C)C(=O)Nc2ccc3c(c2)OCCO3)cc1OC (centres undefined),inactive: 3.2%
8,CCn1c(SCC(=O)N/N=C/c2ccccc2OCC(=O)O)nnc1-c1ccc(OC)cc1,inactive: 7.41%
9,O=C(CN1CCN(S(=O)(=O)N2CCCCCC2)CC1)Nc1ccc(Br)cc1,inactive: 8.88%
10,CCC(=O)c1ccc(OCC(O)CNC(C)c2ccccc2)cc1 (centres undefined),inactive: 8.91%
11,NS(=O)(=O)c1ccc(CNC(=O)c2cc(=O)c3ccccc3o2)cc1,inactive: 1.43%
12,O=C(O)C(c1ccccc1)C(c1ccccc1)c1ccccc1 (centres undefined),inactive: 11.2%
13,Cc1cc(NC(=O)CCC(=O)N(CCC(C)C)C(C(=O)NC2CCCC2)c2ccccc2C)no1 (centres undefined),inactive: 16.8%
14,COc1ccc(N2CCN(C(=O)c3oc4c(c3C)C(=O)CCC4)CC2)cc1,inactive: 5.7%
15,COc1cc(/C=N\NC(=O)c2cccnc2)ccc1OC(=O)c1ccccc1Cl,inactive: 6.38%
16,Clc1ccccc1/C=C/c1nc(-c2ccccn2)no1,inactive: 31.8%
17,CN(C)C=NC(=O)c1cccn1-c1ncc(C(F)(F)F)cc1Cl,inactive: 9.2%
18,CC(=O)Nc1ccc(Oc2ccc(NC(C)=O)c(NC(C)=O)c2)cc1,inactive: 9.2%
19,Cc1ccc2nc(-c3ccncc3)[nH]c2c1,inactive: 2.89%
20,CN1CCN(Cc2cc(COCc3ccccc3)c3cccnc3c2O)CC1,inactive: 8.94%
21,CCNC(=S)Nc1cc(OCC)c(N2CCOCC2)cc1OCC,inactive: 22.6%
22,O=C(CN1CCN(c2ccccc2O)CC1)Nc1cccnc1Cl,inactive: -9.31%
23,COC(=O)/C=C/c1c(C)[nH]c(=O)[nH]c1=O,inactive: 0.748%
24,Cc1nnc(SCC(=O)Nc2ncc(S(=O)(=O)c3ccc([N+](=O)[O-])cc3)s2)s1,inactive: 1.36%
25,O=C1CN(S(=O)(=O)c2ccc(F)cc2)c2ccccc2N1,inactive: 2.52%
26,Cc1nc2cnccc2n1C,inactive: -2.32%
27,Cc1ccccc1Nc1nc(N)nc(COC(=O)c2cccc(S(=O)(=O)NCc3ccccc3)c2)n1,inactive: -13.2%

row,Compound,growth rescue (activation)
1,O=C(OCC(=O)N1CCCc2ccccc21)c1cccc(S(=O)(=O)N2CCc3ccccc32)c1,inactive: 12.3%
2,CCOc1ccc(NC(=O)Cn2nnc3c(cnn3-c3ccc(F)cc3)c2=O)cc1,inactive: 1.19%
3,CN(CCC1CCOCC1)C(=O)CC1C(=O)NCCN1Cc1ccoc1 (centres undefined),inactive: 3.32%
4,COc1ccccc1NC(=O)COC(=O)c1cc(C)oc1C,inactive: 20.6%
5,COc1ccc(C(CC(=O)Nc2ccc(C(C)=O)cc2)N2Cc3ccccc3C2=O)cc1 (centres undefined),inactive: 21.1%
6,COc1ccccc1CN1C(=O)c2cccc3cccc(c23)C1=O,inactive: 6.16%
7,COc1cc2c3c(c1)c(N=NC(N)=S)c(O)n3C(C)(C)C=C2C,inactive: 9.7%
8,Cc1ccc(CN2C(=O)c3ccccc3CC2(C)C(=O)NC2CCCCC2)cc1 (centres undefined),inactive: 3.94%
9,COCCn1c(=NC(=O)c2ccc3c(c2)OCCO3)sc2cc(S(N)(=O)=O)ccc21,inactive: -5.64%
10,Cc1nnc(SCc2cc(=O)[nH]c(Nc3nc(C)c4cc(C)c(C)cc4n3)n2)s1,inactive: -1.88%
11,COc1ccc(-c2sc(Nc3ccc(F)c(F)c3F)nc2CCC(=O)NN)cc1,inactive: 36.1%
12,COc1ccc(N2CCOCC2)c(NC(=O)c2ccco2)c1,inactive: 18.7%
13,Cc1ccccc1NC(=O)COC(=O)C1C2CC3OC(=O)C1C3C2 (centres undefined),inactive: 0.381%
14,CC(C)c1nnc(NC(=O)C2CCN(C(=O)Nc3ccccc3)CC2)s1,inactive: 2.52%
15,CCOC(=O)C1=C(c2ccccc2)NC(=O)N(C(C)=O)C1c1cccc([N+](=O)[O-])c1 (centres undefined),inactive: -17.1%
16,Cc1ccc(S(=O)(=O)N(C)CC(=O)OCC(=O)NC(=O)Nc2ccc3c(c2)OCCO3)cc1,inactive: 4.96%
17,COc1cc(NC(=O)CSc2ccc(-c3ccccn3)nn2)cc(OC)c1,inactive: 20.4%
18,Cc1ccc(/C=N/NC(=O)c2cccnc2)s1,inactive: 1.53%
19,COC(=O)COc1ccc(S(=O)(=O)Nc2cc([N+](=O)[O-])ccc2C)cc1,inactive: 10.2%
20,O=C(CSCc1ccccc1Br)N/N=C/c1ccc(OCC(=O)N2CCCCC2)cc1,inactive: 6.91%
21,CCN(CC(=O)NCc1ccco1)S(=O)(=O)c1ccc(OC)cc1,inactive: 10.8%
22,CCN1CCCC1Cn1cnc2c([nH]c3ccc(C)cc32)c1=O (centres undefined),inactive: 27%
23,Cc1cc(N2CCN(C)CC2)nc2ccc(NC(=O)CCC(=O)NCCc3ccc(Cl)cc3)cc12,inactive: 7.63%
24,Cc1ccc(Nc2c(-c3ccccn3)nc3cc(C)ccn23)cc1,inactive: 2.63%
25,COc1ccc(NC(NC(=O)c2cccnc2)C(Cl)(Cl)Cl)cc1 (centres undefined),inactive: 1.47%
26,COc1cc(C(C)=O)ccc1OCC(O)CN1CCN(c2ccccn2)CC1 (centres undefined),inactive: 1.75%
27,Cn1c(SCC2CCCO2)nnc1-c1cccc([N+](=O)[O-])c1 (centres undefined),inactive: 7.12%

# Reference: PubChem BioAssay AID1347073 (National Center for Advancing Translational Sciences (NCATS), 2019)
